Source: PubChem BioAssay (Tox21)
Inconclusive results, whose numbers are uncertain, are shown with a selection of clear calls. No potency is given beside an inconclusive call; the fits are too rough. Calls of active or inactive are those of the source. The call rests on the fitted dose curve; in most records, active means well fitted curve in the direction sought with a large enough effect in the repeat runs; inconclusive means weak or mixed curves; inactive means no such curve, though single readings can be large; an effect the other way counts as inactive or inconclusive.

Test: qHTS RealTime-Glo MT Cell Viability Assay in HEK293 cells - 40 hour (AID 1224874); further: nearly all actives have a fitted effect of over 50% in size; on max response: on the % scale 0 is the no-effect control and ±100 the full control effect
Conditions: RealTime-Glo luminescence; max response: active compounds read low
In short: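 Real-time viability in HEK293: signal arises when living cells convert a prosubstrate for NanoLuc in the medium, so luminescence tracks viable cell number. Compound (23 nL, DMSO) added 5 h post-seeding; kinetic reads at 0–40 h, 37 C.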
Potency means the concentration at half of the fitted maximal effect; tags describe the fitted curve by direction and shape.

Row | Structure (SMILES) | Potency | max response
1 | CCN(CC)CCCC(C)Nc1c2ccc(Cl)cc2nc2ccc(OC)cc12 (configuration not stated) | active: 3.01 µM | –
2 | COc1cc(-c2ccc(N=C=O)c(OC)c2)ccc1N=C=O | – | inactive: -10%
3 | CC1(C)CCC(C)(C)c2cc(NC(=O)c3ccc(C(=O)O)cc3)ccc21 | inconclusive [cytotoxic, single point] | –
4 | CCOC(=O)O[C@]1(C(=O)OCCl)CC[C@H]2[C@@H]3CCC4=CC(=O)C=C[C@]4(C)[C@H]3[C@@H](O)C[C@@]21C | inconclusive [cytotoxic, partial curve, poor fit] | –
5 | CCN(CC)c1ccc2c(c1)Oc1cc(N(CC)CC)ccc1C21OC(=O)c2ccccc21 | inconclusive [cytotoxic, partial curve] | –
6 | CN1CCN(C2=Nc3cc(F)ccc3Cc3ccccc32)CC1 | inconclusive [rising, single point] | –
7 | Cc1c(C(=O)NN2CCCCC2)nn(-c2ccc(Cl)cc2Cl)c1-c1ccc(Cl)cc1 | inconclusive [cytotoxic, partial curve] | –
8 | CCCc1nc2c(C)cc(-c3nc4ccccc4n3C)cc2n1Cc1ccc(-c2ccccc2C(=O)O)cc1 | inconclusive [cytotoxic, partial curve] | –
9 | Nc1cccc2c(N)cccc12 | inconclusive | –
10 | Nc1ccc2c3c(cccc13)-c1ccccc1-2 | active: 27.8 µM | –
11 | CC1=CC(=O)CC(C)(C)C1 | inconclusive [cytotoxic, single point] | –
12 | Fc1ccc([C@@H]2CCNC[C@H]2COc2ccc3c(c2)OCO3)cc1 | inconclusive [cytotoxic, single point] | –
13 | O=C(O)CCCCCCCCCCCC(=O)O | inconclusive [cytotoxic, full curve] | inactive: 7.31%
14 | Cc1[nH]cnc1C[C@H]1CCc2c(C)c3ccccc3n2C1=O | active: 23.9 µM | –
15 | CC(C)(C)CC(C)(C)c1ccc(OCCO)cc1 | active: 4.87 µM | –
16 | COC(=O)C1=C(C)NC(C)=C(C(=O)OCCN2CCN(C(c3ccccc3)c3ccccc3)CC2)C1c1cccc([N+](=O)[O-])c1 (configuration not stated) | inconclusive [cytotoxic, partial curve, poor fit] | –
17 | COc1ccc(-c2cc(=S)ss2)cc1 | inconclusive [cytotoxic, partial curve, poor fit] | –
18 | CCCCCCC[N+](CC)(CC)CCCCc1ccc(Cl)cc1 | active: 1.9 µM | –

Test: A CellTox Green Cytotoxicity Assay to monitor cytotoxicity in HEK293 cells - 24 hour (AID 1224875); further: nearly all actives have a fitted effect of over 45% in size; on activity change: on the % scale 0 is the no-effect control and ±100 the full control effect
Conditions: CellTox Green fluorescence; series mostly up to 76.8 µM; activity change: at the top concentration
In short: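 Cells (HEK293, 600/well) and dye reagent are dispensed together. After 5 h at 37 C, 23 nL compound is pinned in. Plates stay at 37 C for 40 h with fluorescence read at 0h, 8h, 16h, 24h, 32h and 40h.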

Row | Structure (SMILES) | activity change | Potency
19 | c1ccc(C[P+](c2ccccc2)(c2ccccc2)c2ccccc2)cc1 | inactive: 2.35% | –
20 | CCN(CC)c1ccc2c(c1)Oc1cc(N(CC)CC)ccc1C21OC(=O)c2ccccc21 | – | active: 19 µM
21 | CC1=CC(=O)CC(C)(C)C1 | – | inconclusive [activator, single point]
22 | CC(C)(C)CC(C)(C)c1ccc(OCCO)cc1 | – | inconclusive [activator, single point]
23 | O=C1C=CC(=O)N1c1cccc(N2C(=O)C=CC2=O)c1 | – | inconclusive [activator, partial curve, poor fit]
24 | O=C(/C=C/c1ccc([N+](=O)[O-])cc1)c1ccccc1 | – | inconclusive [activator, partial curve, poor fit]

Test: A CellTox Green Cytotoxicity Assay to monitor cytotoxicity in HepG2 cells - 16 hour (AID 1224876); further: nearly all actives have a fitted effect of over 45% in size
Conditions: CellTox Green fluorescence; series mostly up to 76.8 µM; cytotoxicity increase: at the top concentration
In short: (§1)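 Cells and non-lytic dye reagent are dispensed together (600 HepG2 cells/well) and incubated 5 h before DMSO compound transfer. Kinetic fluorescence is then recorded in the same wells during 40 h at 37 C.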

Row | Structure (SMILES) | Potency
25 | Nc1ccc2c3c(cccc13)-c1ccccc1-2 | active: 39.3 µM
26 | CCCCCCCCc1ccc(S(=O)(=O)O)cc1 | inconclusive [activator, partial curve, poor fit]
27 | O=S(=O)(c1ccc(OCc2ccccc2)cc1)c1ccccc1O | inconclusive [activator, single point]

Test: qHTS RealTime-Glo MT Cell Viability Assay in HepG2 cells - 32 hour (AID 1224877); further: nearly all actives have a fitted effect of over 55% in size
Conditions: RealTime-Glo luminescence; series mostly up to 76.8 µM; activity change, negative = cytotoxic: at the top concentration
In short: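 qHTS, HepG2, 600 cells/well, RealTime-Glo (NanoLuc + prosubstrate) added with cells; 5 h preincubation; DMSO compound addition; 37 C; luminescence at 0/8/16/24/32/40 h.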

Row | Structure (SMILES) | Potency
28 | COC(=O)C1=C(C)NC(C)=C(C(=O)OC(C)(C)CN(C)CCC(c2ccccc2)c2ccccc2)C1c1cccc([N+](=O)[O-])c1 (configuration not stated) | inconclusive [cytotoxic, partial curve, poor fit]
29 | Cc1[nH]cnc1C[C@H]1CCc2c(C)c3ccccc3n2C1=O | active: 42.6 µM
30 | O=C(/C=C/c1ccc([N+](=O)[O-])cc1)c1ccccc1 | inconclusive [cytotoxic, full curve]
31 | COC(=O)C1=C(C)NC(C)=C(C(=O)OCCN2CCN(C(c3ccccc3)c3ccccc3)CC2)C1c1cccc([N+](=O)[O-])c1 (configuration not stated) | inconclusive [cytotoxic, partial curve]

Test: A CellTox Green Cytotoxicity Assay to monitor cytotoxicity in HepG2 cells - 24 hour (AID 1224878); further: nearly all actives have a fitted effect of over 45% in size; on Cytotoxicity: on the % scale 0 is the no-effect control and ±100 the full control effect
Conditions: CellTox Green fluorescence; series mostly up to 76.8 µM; cytotoxicity: at the top concentration
In short: as §1

Row | Structure (SMILES) | cytotoxicity | Potency
32 | COc1cc(-c2ccc(N=C=O)c(OC)c2)ccc1N=C=O | inactive: 2% [at 35.3 µM] | –
33 | CCC/C=C/C=O | – | inactive
34 | c1ccc(C[P+](c2ccccc2)(c2ccccc2)c2ccccc2)cc1 | – | inconclusive [activator, partial curve, poor fit]
35 | CO[C@@]12[C@H](COC(N)=O)C3=C(C(=O)C(C)=C(N)C3=O)N1C[C@@H]1N[C@@H]12 | – | active: 8.49 µM
36 | CC[C@H](NC(=O)c1cc(F)ccc1NS(=O)(=O)c1cccc2cccnc12)c1ccccc1 | inactive: 24.5% | –
37 | Nc1ccc2c3c(cccc13)-c1ccccc1-2 | – | active: 44.1 µM
38 | O=C(O)CCCCCCCCCCCC(=O)O | – | inconclusive [activator, partial curve, poor fit]
39 | CCCCCCCCc1ccc(S(=O)(=O)O)cc1 | – | inconclusive [activator, full curve, poor fit]
40 | O=S(=O)(c1ccc(OCc2ccccc2)cc1)c1ccccc1O | – | inconclusive [activator, single point]
41 | c1cc(N(CC2CO2)CC2CO2)ccc1Cc1ccc(N(CC2CO2)CC2CO2)cc1 (configuration not stated) | – | inconclusive [activator, single point]
